Experimental data published in PubChem BioAssay AID652104 (National Center for Advancing Translational Sciences (NCATS), 2013).
Hit rate of the full screen: of about 410,000 compounds, about 7,200 (1.8%) were called active. This list was built around the results that the source calls inconclusive (neither active nor inactive); the mix of calls is not that of the screen. Calls follow the shape of the dose curve; as a rule, active = well fitted activation curve with a large enough effect; inconclusive = small, poorly fitted or top-dose-only effect, or another doubt; inactive = no such curve, though single readings can be large or run the other way. Potencies of inconclusive entries are left out as doubtful fits.

Experiment: qHTS of TDP-43 Inhibitors; also: nearly all actives have a fitted effect of over 50% in size; as to growth rescue (activation): % of control where 0% means no effect
Conditions: TDP-43 expressing yeast growth rescue, BacTiter-Glo, 24 h; growth rescue (activation): at 46.1 µM (top of the series) unless noted
In short: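 Galactose-induced TDP-43 yeast, OD600=0.02, compound pinned; 24 hr, 30 deg C; BacTiter-Glo luminescence for growth. Inhibitors of TDP-43 toxicity read as activators.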
Potency is read from the fitted curve at half-maximal effect; tags tell the direction and shape of the fitted curve.

| SMILES | Potency | growth rescue (activation) |
| --- | --- | --- |
| COc1ccc(-n2c(/C=C/c3cccc(C(F)(F)F)c3)nc3ccccc3c2=O)cc1Cl | inconclusive [activator, partial curve, poor fit] |  |
| COC(=O)Nc1ccc(S(=O)(=O)N2CCC(Cc3ccccc3)CC2)cc1 | inconclusive [activator, single point] |  |
| O=C(O)/C=C/C(=O)Nc1cccc2c1-c1ccccc1C2=O | active: 20 µM |  |
| COc1ccc(NC(C)C(=O)Nc2ccc(C#N)cc2)cc1Cl (stereo not given) | inconclusive [activator, partial curve] |  |
| CCCC[C@@]1(C2CCCC2)Cc2cc(OCC(=O)O)c(Cl)c(Cl)c2C1=O |  | inactive: 13.2% |
| O=c1c2ccccc2nc(N2CCN(c3ccccc3)CC2)n1Cc1ccccc1 | inconclusive [activator, partial curve] |  |
| O=C(Nc1ccc(Oc2ccccc2)cc1)c1csc(COCCO)n1 | active: 12.6 µM |  |
| O=C(c1ccco1)N1CCN(c2nc3c(F)cc(F)cc3s2)CC1 | inconclusive [activator, partial curve] |  |
| CC1(C)CCCN(C(=O)c2ccc3c(c2NCCO)C(=O)c2ccccc2C3=O)C1 | inconclusive [activator, single point] |  |
| Oc1ccc(NCc2cccc(OCc3ccc(F)cc3)c2)cc1 | inconclusive [activator, partial curve] |  |
| COc1ccc(F)cc1-c1cc(C(=O)NCc2ccc(F)cc2)[nH]n1 | inconclusive [activator, partial curve] |  |
| Cc1cccc(CCNC(=O)c2ccc3c(c2)nc2n3CCC(C)C2)c1 (stereo not given) |  | inactive: 5.91% |
| NNC(=O)CN1C(c2ccc(Cl)cc2)=Nc2ccc(Br)cc2C1c1ccccc1 (stereo not given) |  | inactive: -1.2% |
| CCOc1ccc(NC(=O)Cc2ccc(NC3=NC4CS(=O)(=O)CC4S3)cc2)cc1 (stereo not given) |  | inactive: 2.24% |
| CC1(C(=O)Nc2cccc(Oc3ccccc3)c2)CCN1Cc1ccccc1OC(F)F (stereo not given) | inconclusive [activator, partial curve, poor fit] |  |
| CCn1nc(-c2ccccc2)c(-c2ccccc2)c(C(=O)Nc2ccc(S(N)(=O)=O)cc2)c1=O |  | inactive: 2.64% |
| Cc1nonc1C(=O)N/N=C/c1ccc([N+](=O)[O-])o1 |  | inactive: 0% |
| c1coc(CN=C2NC(=NCc3ccco3)c3ccccc32)c1 |  | inactive: -5.99% |
| COc1ccccc1C(=O)Nc1ccc2c(c1)CCCN2C(=O)c1ccccc1 | inconclusive [activator, single point] |  |
| N#Cc1c(-c2ccccc2)cc(C2CC2)nc1N | active: 12.6 µM |  |
| CN1c2ccc([N+](=O)[O-])cc2C(C)(C)C12C=Cc1cc(C(=O)O)ccc1O2 (stereo not given) | inconclusive [activator, single point] |  |
| NC(=O)[C@@H]1CC2(CC(c3cccc(NC(=O)CC(c4ccccc4)c4ccccc4)c3)=NO2)CN1C(=O)c1ccc(Cl)cc1 (stereo not given in full) |  | inactive: -9.41% |
| CCCOc1ccccc1NC(=O)c1c(-c2ccccc2)noc1C | inconclusive [activator, partial curve] |  |
| O=C(/C=C/c1ccco1)Nc1ccc(F)cc1 | inconclusive [activator, partial curve, poor fit] |  |

| SMILES | Potency | growth rescue (activation) |
| --- | --- | --- |
| CCc1cc(-c2n[nH]c(C)c2-c2nc(C)cs2)c(O)cc1OC | inconclusive [activator, full curve, poor fit] |  |
| CCOC(=O)C1CCCN(c2nc3c(S(=O)(=O)c4ccc(Br)cc4)nnn3c3ccsc23)C1 (stereo not given) |  | inactive: -1.92% |
| COc1ccc2ccn(S(=O)(=O)c3ccccc3)c2c1 | active: 20 µM |  |
| COc1cc(OC)cc(C(=O)Nc2cc(-c3nc4ccccc4[nH]3)ccc2C)c1 | inconclusive [activator, single point] |  |
| COc1cc(C(=O)N(Cc2ccc(F)cc2)Cc2ccco2)cc(OC)c1OC |  | inactive: -2.42% |
| O=C(Nc1nc(-c2ccccc2)cs1)c1ccccc1F | inconclusive [activator, partial curve] |  |
| Cc1ccc(N(CC(=O)Nc2cccc(Cl)c2C)S(=O)(=O)c2c(C)noc2C)cc1 |  | inactive: 0% |
| C=C(C)Cc1c(C)c(C#N)c2nc3ccccc3n2c1N1CCCCC1 | inconclusive [activator, full curve, poor fit] |  |
| COc1ccc(CCNC(=O)CSc2nc3nc(C)c(Cc4ccc(C)cc4)c(C)n3n2)cc1OC |  | inactive: 17.9% |
| O=C(N/N=C/c1c[nH]c2ccc(Br)cc12)c1ccc2c(c1)OCO2 | inconclusive [activator, partial curve] |  |
| CC(/C=C/c1ccco1)=N/NC(=O)c1ccccc1Cl |  | inactive: -7.26% |
| Cc1ccc(NC(=S)c2nc3ccccc3[nH]2)cc1 | inconclusive [activator, single point] |  |
| COc1ccc(C2=NS(=O)(=O)N(C)C(C(=O)N3CCC(C)CC3)=C2)cc1 |  | inactive: 5.6% |
| Fc1ccc(N/N=C/c2ccc(N3CCOCC3)cc2)c(F)c1 | active: 17.8 µM |  |
| CC(C)(C)c1ccc(S(=O)(=O)NC(=O)C2(C)CCN2C(=O)Cc2cccc3ccccc23)cc1 (stereo not given) | inconclusive [activator, single point] |  |
| CCOc1ccc2nc(-c3cc(NC(C)=O)ccc3O)sc2c1 | inconclusive [activator, partial curve] |  |
| CCOc1ccccc1NS(=O)(=O)c1ccc2c(c1)CC(C)N2C(=O)C1CC1 (stereo not given) | inconclusive [activator, partial curve, poor fit] |  |
| Cc1nc2sc(C(=O)O)c(N)c2c2c1COC(C)(C)C2 | inconclusive [activator, single point] |  |
| COc1ccc(Cl)cc1NC(=O)CN(C)C(=O)Cc1ccc(-c2ccccc2)cc1 | inconclusive [activator, partial curve] |  |
| CCc1c(C)nc2nncn2c1Nc1ccc(Cl)cc1 | inconclusive [activator, partial curve, poor fit] |  |
| CCc1nc2ccccc2n2c(-c3ccccc3)c3c(=O)n(C)c(=O)n(C)c3c12 | inconclusive [activator, single point] |  |
| N/C(=N\OC(=O)c1ccc(Cl)c(Cl)c1)c1ccccn1 |  | inactive: 11.4% |
| Cc1ccc(/C=C(\NC(=O)c2ccc(C)cc2)c2nc(=S)[nH][nH]2)cc1 | active: 20 µM |  |
| Cc1ccc(/C=N/n2c(C3CCCCC3)n[nH]c2=S)s1 | inconclusive [activator, partial curve, poor fit] |  |

| SMILES | Potency | growth rescue (activation) |
| --- | --- | --- |
| CCCN(Cc1ccccc1)C(=S)Nc1ccc(F)cc1 | active: 17.8 µM |  |
| O=[N+]([O-])c1ccc(Oc2ccc(S(=O)(=O)N3CCCCC3)cc2)cc1 | inconclusive [activator, partial curve] |  |
| Cc1ccccc1-n1c(-c2csc(C)c2C)n[nH]c1=S | inconclusive [activator, single point] |  |
| COC(=O)[C@@]12C[C@@H](CC(=O)NCc3cccc(C(F)(F)F)c3)C(=O)N(CCc3ccc(OC)c(OC)c3)C1=CCC(C)(C)C2 | inconclusive [activator, partial curve] |  |
| C[C@@H]1CN([C@H](C)CO)C(=O)c2cc(Br)cnc2O[C@H]1CN(C)C(=O)c1ccccc1 | inconclusive [activator, single point] |  |
| CCOc1ccc(NC(=O)C2CCN(c3nc4ccccc4[nH]3)CC2)cc1 |  | inactive: 3.49% |
| N#Cc1ccc(-c2nc3ccc(Br)cn3c2Cc2ccccc2)cc1 | inconclusive [activator, partial curve] |  |
| Cc1ccc(-c2cc(-c3ccccc3C)[nH]n2)c(O)c1 |  | inconclusive: -55.5% [activator] |
| CC(=O)c1cccc(-c2ccnc3c2CC(C(=O)NCc2ccc(F)c(F)c2)O3)c1 (stereo not given) | inconclusive [activator, partial curve, poor fit] |  |
| O=C(NCCc1csc(-c2ccc(F)cc2)n1)c1ccco1 | inconclusive [activator, single point] |  |
| CC1=C(C(=O)Nc2cc(Cl)ccc2C)C2(CCCCC2)OC1=O | active: 35.5 µM |  |
| CCCCCCCC1CC(/C(C)=N/NC(N)=O)OC1=O (stereo not given) | inconclusive [activator, partial curve, poor fit] |  |
| COc1ccc(NC(=O)CC2C(=O)N(C)C(=S)N2CCc2ccccc2)cc1 (stereo not given) | inconclusive [activator, single point] |  |
| COc1ccc(OC)c(N2CC(O)=C(c3nc4ccccc4s3)C2=N)c1 | inconclusive [activator, partial curve] |  |
| CCN(CC)c1cc(C)c2cc(NC(=O)c3ccccc3Cl)ccc2n1 |  | inactive: 15.1% |
| O=C(Nc1cc(C(F)(F)F)ccc1N1CCOCC1)c1cccnc1Cl |  | inactive: 14.1% |
| O=Cc1ccc(OCC(=O)Nc2ccccc2-c2ccccc2)cc1 | inconclusive [activator, single point] |  |
| Cn1cnc2c(=O)oc3ccc(S(=O)(=O)N4CCN(c5cccc(C(F)(F)F)c5)CC4)cc3c21 |  | inactive: 0% |
| CC(C)(C)OC(=O)N1CCC(c2c(C(=O)Nc3ccc4c(c3)OCCO4)cnn2-c2ccc(F)cc2F)CC1 | inconclusive [activator, single point] |  |
| O=C(O)CC/C(=C\c1ccccc1[N+](=O)[O-])c1nc2ccccc2s1 | inconclusive [activator, single point] |  |
| CCOC(=O)C(=O)NCC(c1cccnc1)N1CCN(c2ccccc2)CC1 (stereo not given) |  | inactive: 19.3% |
| CCCCCC1C(=O)CCC1CC(=O)OC (stereo not given) | inconclusive [activator, partial curve] |  |
